# Experimental data: the supplement of paper PMC8728848
# Some of the results follow.
# How the values were obtained:
# Assay in all cases: glycan array binding signal (z-score within array); higher = stronger binding
# Conditions in all cases: glycan notation: IUPAC condensed, linker removed
# [1] = target: Neu5Ac(a2-3)Gal(b1-3)GalNAc6S
# How it was run: (§1)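 The binding signal is a Z-score computed within each array. Data were drawn from 3228 arrays in the Consortium for Functional Glycomics database, restricted to those with a known protein sequence. Scores were averaged over arrays of the same protein sequence at different concentrations or buffers, and over linkers, and negative values can be taken as non-binding.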
# [2] = target: Neu5Ac(a2-3)Gal(b1-3)GlcNAc
# How it was run: as §1
# [3] = target: Neu5Ac(a2-3)Gal(b1-3)GlcNAc(b1-3)Gal(b1-3)GlcNAc
# How it was run: as §1
# [4] = target: Neu5Ac(a2-3)Gal(b1-3)GlcNAc(b1-3)Gal(b1-4)GlcNAc
# How it was run: as §1
# [5] = target: Neu5Ac(a2-3)Gal(b1-3)GlcNAc(b1-3)GalNAc
# How it was run: as §1
# [6] = target: Neu5Ac(a2-3)Gal(b1-3)GlcNAc6S
# How it was run: as §1
# [7] = target: Neu5Ac(a2-3)Gal(b1-3)[Fuc(a1-4)]GlcNAc
# How it was run: as §1
# [8] = target: Neu5Ac(a2-3)Gal(b1-3)[Fuc(a1-4)]GlcNAc(b1-3)Gal(b1-3)[Fuc(a1-4)]GlcNAc
# How it was run: as §1
# [9] = target: Neu5Ac(a2-3)Gal(b1-3)[Fuc(a1-4)]GlcNAc(b1-3)Gal(b1-4)[Fuc(a1-3)]GlcNAc
# How it was run: as §1
# [10] = target: Neu5Ac(a2-3)Gal(b1-3)[Neu5Ac(a2-3)Gal(b1-4)]GlcNAc
# How it was run: as §1
# [11] = target: Neu5Ac(a2-3)Gal(b1-3)[Neu5Ac(a2-6)]GalNAc
# How it was run: as §1
# Neu5Ac(a2-3)Gal(b1-4)Glc = target: Neu5Ac(a2-3)Gal(b1-4)Glc
# How it was run: as §1
# [12] = target: Neu5Ac(a2-3)Gal(b1-4)GlcNAc
# How it was run: as §1
# [13] = target: Neu5Ac(a2-3)Gal(b1-4)GlcNAc(b1-2)Man(a1-3)[GlcNAc(b1-2)Man(b1-4)GlcNAc(b1-2)Man(a1-6)]Man(b1-4)GlcNAc(b1-4)GlcNAc
# How it was run: as §1
# [14] = target: Neu5Ac(a2-3)Gal(b1-4)GlcNAc(b1-2)Man(a1-3)[Neu5Ac(a2-6)Gal(b1-4)GlcNAc(b1-2)Man(a1-6)]Man(b1-4)GlcNAc(b1-4)GlcNAc
# How it was run: as §1
# [15] = target: Neu5Ac(a2-3)Gal(b1-4)GlcNAc(b1-3)Gal
# How it was run: as §1
# [16] = target: Neu5Ac(a2-3)Gal(b1-4)GlcNAc(b1-3)Gal(b1-3)GlcNAc
# How it was run: as §1
# [17] = target: Neu5Ac(a2-3)Gal(b1-4)GlcNAc(b1-3)Gal(b1-4)GlcNAc
# How it was run: as §1
# [18] = target: Neu5Ac(a2-3)Gal(b1-4)GlcNAc(b1-3)Gal(b1-4)GlcNAc(b1-3)Gal(b1-4)GlcNAc
# How it was run: as §1
# [19] = target: Neu5Ac(a2-3)Gal(b1-4)GlcNAc(b1-3)Gal(b1-4)[Fuc(a1-3)]GlcNAc
# How it was run: as §1
# [20] = target: Neu5Ac(a2-3)Gal(b1-4)GlcNAc(b1-3)GalNAc
# How it was run: as §1
# [21] = target: Neu5Ac(a2-3)Gal(b1-4)GlcNAc(b1-6)[Gal(b1-3)]GalNAc
# How it was run: as §1
# [22] = target: Neu5Ac(a2-3)Gal(b1-4)GlcNAc(b1-6)[Neu5Ac(a2-3)Gal(b1-3)]GalNAc
# How it was run: as §1
# [23] = target: Neu5Ac(a2-3)Gal(b1-4)GlcNAc6S
# How it was run: as §1
# [24] = target: Neu5Ac(a2-3)Gal(b1-4)[Fuc(a1-3)]GlcNAc
# How it was run: as §1
# [25] = target: Neu5Ac(a2-3)Gal(b1-4)[Fuc(a1-3)]GlcNAc(b1-3)Gal
# How it was run: as §1
# [26] = target: Neu5Ac(a2-3)Gal(b1-4)[Fuc(a1-3)]GlcNAc(b1-3)Gal(b1-4)GlcNAc
# How it was run: as §1
# [27] = target: Neu5Ac(a2-3)Gal(b1-4)[Fuc(a1-3)]GlcNAc(b1-3)Gal(b1-4)[Fuc(a1-3)]GlcNAc(b1-3)Gal(b1-4)[Fuc(a1-3)]GlcNAc
# How it was run: as §1
# [28] = target: Neu5Ac(a2-3)Gal(b1-4)[Fuc(a1-3)]GlcNAc(b1-3)GalNAc
# How it was run: as §1
# [29] = target: Neu5Ac(a2-3)Gal(b1-4)[Fuc(a1-3)]GlcNAc(b1-6)[Gal(b1-3)]GalNAc
# How it was run: as §1
# [30] = target: Neu5Ac(a2-3)Gal(b1-4)[Fuc(a1-3)]GlcNAc6S
# How it was run: as §1
# [31] = target: Neu5Ac(a2-3)Gal6S(b1-4)GlcNAc
# How it was run: as §1
# [32] = target: Neu5Ac(a2-3)Gal6S(b1-4)[Fuc(a1-3)]GlcNAc
# How it was run: as §1
# Neu5Ac(a2-3)GalNAc = target: Neu5Ac(a2-3)GalNAc
# How it was run: as §1
# [33] = target: Neu5Ac(a2-3)GalNAc(b1-4)GlcNAc
# How it was run: as §1
# [34] = target: Neu5Ac(a2-3)[GalNAc(b1-4)]Gal(b1-4)Glc
# How it was run: as §1
# [35] = target: Neu5Ac(a2-3)[GalNAc(b1-4)]Gal(b1-4)GlcNAc
# How it was run: as §1
# [36] = target: Neu5Ac(a2-3)[GalNAc(b1-4)]Gal(b1-4)GlcNAc(b1-3)GalNAc
# How it was run: as §1
# [37] = target: Neu5Ac(a2-3)[Neu5Ac(a2-6)]GalNAc
# How it was run: as §1
# Neu5Ac(a2-6)Gal = target: Neu5Ac(a2-6)Gal
# How it was run: as §1
# [38] = target: Neu5Ac(a2-6)Gal(b1-3)GlcNAc(b1-3)[Gal(b1-4)GlcNAc(b1-6)]Gal(b1-4)Glc
# How it was run: as §1
# Neu5Ac(a2-6)Gal(b1-4)Glc = target: Neu5Ac(a2-6)Gal(b1-4)Glc
# How it was run: as §1
# [39] = target: Neu5Ac(a2-6)Gal(b1-4)GlcNAc
# How it was run: as §1
# [40] = target: Neu5Ac(a2-6)Gal(b1-4)GlcNAc(b1-2)Man(a1-3)Man(b1-4)GlcNAc(b1-4)GlcNAc
# How it was run: as §1
# [41] = target: Neu5Ac(a2-6)Gal(b1-4)GlcNAc(b1-2)Man(a1-3)[Gal(b1-4)GlcNAc(b1-2)Man(a1-6)]Man(b1-4)GlcNAc(b1-4)GlcNAc
# How it was run: as §1
binder,measurement,setting,value
PpFlo3 (Pichia pastoris) (protein) MGSSHHHHHHSSGLVPRGSHMQESGNGTTSDTAYACDIGATPFDGFNATIYQYQASDDNSIQDPVFMSTGYLQRNQLHSTTGVTNPGFNIFTAGVATTTLYGIPNVNYQNMLLELKGYFRADASGNYGLSLRNIDDSAILFFGRETAFECCNENLIPLDEAPTDYSLFTIKEGEASTNPDSYTYTQYLEAGRYYPVRTFFANIRTRAVFNFTMTLPDGSELTDFQNYIFQFGALNQ,glycan array binding signal (z-score),[1],-0.29
same,glycan array binding signal (z-score),[2],-0.232
same,glycan array binding signal (z-score),[3],-0.252
same,glycan array binding signal (z-score),[4],-0.254
same,glycan array binding signal (z-score),[5],-0.223
same,glycan array binding signal (z-score),[6],-0.301
same,glycan array binding signal (z-score),[7],-0.282
same,glycan array binding signal (z-score),[8],-0.27
same,glycan array binding signal (z-score),[9],-0.308
same,glycan array binding signal (z-score),[10],-0.271
same,glycan array binding signal (z-score),[11],-0.211
same,glycan array binding signal (z-score),Neu5Ac(a2-3)Gal(b1-4)Glc,-0.285
same,glycan array binding signal (z-score),[12],-0.264
same,glycan array binding signal (z-score),[13],-0.209
same,glycan array binding signal (z-score),[14],-0.296
same,glycan array binding signal (z-score),[15],-0.304
same,glycan array binding signal (z-score),[16],-0.115
same,glycan array binding signal (z-score),[17],-0.273
same,glycan array binding signal (z-score),[18],-0.167
same,glycan array binding signal (z-score),[19],-0.271
same,glycan array binding signal (z-score),[20],-0.213
same,glycan array binding signal (z-score),[21],-0.281
same,glycan array binding signal (z-score),[22],-0.263
same,glycan array binding signal (z-score),[23],-0.261
same,glycan array binding signal (z-score),[24],-0.23
same,glycan array binding signal (z-score),[25],-0.27
same,glycan array binding signal (z-score),[26],-0.251
same,glycan array binding signal (z-score),[27],-0.266
same,glycan array binding signal (z-score),[28],-0.286
same,glycan array binding signal (z-score),[29],-0.285
same,glycan array binding signal (z-score),[30],-0.27
same,glycan array binding signal (z-score),[31],-0.259
same,glycan array binding signal (z-score),[32],-0.268
same,glycan array binding signal (z-score),Neu5Ac(a2-3)GalNAc,-0.083
same,glycan array binding signal (z-score),[33],-0.282
same,glycan array binding signal (z-score),[34],-0.143
same,glycan array binding signal (z-score),[35],-0.272
same,glycan array binding signal (z-score),[36],-0.111
same,glycan array binding signal (z-score),[37],-0.286
same,glycan array binding signal (z-score),Neu5Ac(a2-6)Gal,-0.275
same,glycan array binding signal (z-score),[38],-0.283
same,glycan array binding signal (z-score),Neu5Ac(a2-6)Gal(b1-4)Glc,-0.279
same,glycan array binding signal (z-score),[39],-0.282
same,glycan array binding signal (z-score),[40],-0.274
same,glycan array binding signal (z-score),[41],0.009
